Measurements as given in PMC4336329 (PLoS ONE, 2015).
Hit rate of the full screen: of about 310,000 compounds, about 2,200 (0.71%) showed an effect of 50% or more. Effects have a minus sign here. The list shows a part of the results.

The compounds below were run against human ether-à-go-go-related gene (hERG) potassium channel (human, UniProt Q12809) (assay: primary screen, population patch clamp on CHO cells stably expressing hERG).
Chain of human ether-à-go-go-related gene (hERG) potassium channel (Q12809 whole entry, looked up): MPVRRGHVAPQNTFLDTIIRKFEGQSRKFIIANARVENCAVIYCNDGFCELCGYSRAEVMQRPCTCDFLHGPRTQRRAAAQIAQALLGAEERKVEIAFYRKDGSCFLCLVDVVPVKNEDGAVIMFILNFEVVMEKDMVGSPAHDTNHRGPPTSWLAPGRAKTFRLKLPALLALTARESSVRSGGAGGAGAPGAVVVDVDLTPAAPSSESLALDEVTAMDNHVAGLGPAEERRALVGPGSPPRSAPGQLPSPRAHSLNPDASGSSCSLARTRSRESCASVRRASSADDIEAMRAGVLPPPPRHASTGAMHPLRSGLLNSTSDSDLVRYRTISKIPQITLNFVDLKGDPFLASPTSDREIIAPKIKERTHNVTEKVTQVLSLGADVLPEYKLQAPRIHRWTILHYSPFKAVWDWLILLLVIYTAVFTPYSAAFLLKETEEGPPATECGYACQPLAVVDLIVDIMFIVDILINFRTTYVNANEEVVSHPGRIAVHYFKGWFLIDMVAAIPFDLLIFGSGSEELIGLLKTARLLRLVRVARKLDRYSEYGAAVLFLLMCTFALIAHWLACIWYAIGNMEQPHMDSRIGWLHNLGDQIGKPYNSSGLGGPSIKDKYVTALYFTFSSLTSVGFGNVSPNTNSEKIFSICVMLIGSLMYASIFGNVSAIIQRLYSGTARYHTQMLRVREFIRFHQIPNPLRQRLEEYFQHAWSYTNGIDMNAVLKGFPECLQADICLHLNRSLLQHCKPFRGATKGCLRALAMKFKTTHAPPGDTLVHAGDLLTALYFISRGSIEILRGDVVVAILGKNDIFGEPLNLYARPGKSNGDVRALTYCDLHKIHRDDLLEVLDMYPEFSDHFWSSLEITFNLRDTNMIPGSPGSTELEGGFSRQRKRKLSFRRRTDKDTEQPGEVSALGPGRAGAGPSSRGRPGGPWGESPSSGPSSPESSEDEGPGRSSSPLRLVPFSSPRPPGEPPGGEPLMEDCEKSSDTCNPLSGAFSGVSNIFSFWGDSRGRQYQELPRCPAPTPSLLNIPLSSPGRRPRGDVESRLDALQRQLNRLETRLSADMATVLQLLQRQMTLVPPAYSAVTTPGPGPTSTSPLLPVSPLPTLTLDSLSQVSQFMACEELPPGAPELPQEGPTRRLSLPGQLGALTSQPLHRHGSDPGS

Compound | hERG current change (%, negative = inhibition) at 1uM [%]
CCOC(=O)c1c(NC(=O)c2cccs2)sc(C)c1CC | 14.5
COc1ccc(NC(=O)N2CCN(S(C)(=O)=O)CC2)cc1 | 3.17
CCOC(=O)N1CCN(C(=O)c2ccc3c(c2)ncn3C2CCCC2)CC1 | 6.43
COc1cc(/C=N/NC(N)=O)ccc1OCC(=O)Nc1cc(C)c(C)cc1Br | 19.3
CCOC(=O)C(=CNc1ccccc1C)C(=O)OCC | 2.89
O=C(Cn1nnc(-c2ccc(Cl)cc2)n1)NC1CCN(Cc2ccccc2)CC1 | 8.02
CC(C)Cc1nnc(NC(=O)CSc2nc(=O)cc(N)n2-c2ccccc2)s1 | 5.1
CCN(CC)C(=O)c1ccc2c(=O)n(CCOC)c(=S)[nH]c2c1 | -0.177
Cc1cccc(NS(=O)(=O)c2cc(C(=O)OC(C)C(=O)NCc3ccc4c(c3)OCO4)ccc2C)c1 (stereo not shown) | -0.425
Cc1cc(/C=C2\C(=O)NC(=O)N(c3ccc(Br)cc3)C2=O)c(C)n1-c1cc(C(=O)O)cc(C(=O)O)c1 | 7.36
CCn1c(=O)c2c(nc3n2CCS3)n(C)c1=O | 11.3
COc1ccc(-n2c(=O)c3ccccc3n(CC(=O)NCc3ccco3)c2=O)cc1 | 14.3
Cc1cccc(/C=N/n2c(C)nc3ccccc3c2=O)c1 | 12.9
Cc1cc(NC(=O)CSc2nnc(N)s2)c([N+](=O)[O-])cc1C | 5.29
CCN(CC)S(=O)(=O)c1ccc(N2CCN(C)CC2)c(NC(=O)Nc2ccccc2F)c1 | 0.899
O=C(Nc1cc(F)cc(F)c1)c1sc(Cl)nc1-c1ccccc1 | 12.7
CC(NC(=O)c1cc(COc2ccccc2)on1)c1nccs1 (stereo not shown) | 1.89
Cc1ccc(Cn2ccsc2=NC(=O)CCl)cc1 | 13.2
Cc1ccc(N/C=C/C(=O)c2ccc(C)cc2)cc1 | 4.34
Cc1ccc(NC(=O)NCCCN2CCOCC2)cc1 | 9.77
CCC1CCCCN1C(=O)Nc1cccc(NC(=O)N2CCCCC2CC)c1 (stereo not shown) | 21.6
COC(=O)C1=C(C)NC(C)=C(C(=O)OC)C1c1cn(-c2ccccc2)nc1-c1ccco1 | 20.1
CCCCc1nc2sc3c(=O)n(N)cnc3c2c2c1CCC2 | 1.19

Compound | hERG current change (%, negative = inhibition) at 1uM [%]
Cc1cc(-c2csc(NC(=O)c3ccc(S(=O)(=O)N(C)C)cc3)n2)c(C)n1-c1ccccc1 | -1.99
Cc1csc(=O)n1CC(=O)OCC(=O)NCc1ccc(Cl)cc1Cl | 4.82
CC(/C=C/c1ccccc1)=N/NC(=O)c1nc2nc(C)cc(C)n2n1 | -9.25
Cc1cc(NC(=O)CSCC(=O)Nc2nc3ccccc3s2)no1 | 2.74
COc1ccc(C(=O)/C=C(\C)NCc2ccc3c(c2)OCO3)cc1 | -8.71
COC(=O)c1ccccc1NC(=O)COC(=O)c1ccco1 | 14.3
COCCNC(=O)c1cccc(OC2CCN(Cc3ccc(Cl)c(F)c3)CC2)c1 | 5.33
CCN(CC(=O)Nc1ccc(C)c(F)c1)CC(=O)NC(C)(C)C | 11.7
Cc1nc2ccc3[nH]snc3c2n1 | -1.71
C=CCOc1ccccc1/C=N/NC(=O)c1ccc(Cl)cc1Cl | 10.5
Cc1ccc(C(=O)Nc2ccc(SC(F)F)cc2)s1 | 13.7
COc1ccc(NC(C)=O)cc1NC(C)C(=O)Nc1ccc(S(=O)(=O)N2CCCCC2)cc1 (stereo not shown) | 0.735
Cc1cccc(OC(C)C(=O)N2CCCc3ccccc32)c1 (stereo not shown) | 9.04
COc1ccc(NC(=O)c2ccc3ncsc3c2)cc1 | 11
Cc1ccc(CNC(=O)CCC2CCCN(Cc3cccc4c3OCO4)C2)o1 (stereo not shown) | -35.6
Cc1cnc(NC(=O)Cc2c[nH]c3ccccc23)s1 | 7.35
COc1ccccc1-c1nc2cc3ccccc3cc2nc1-c1ccccc1OC | -1.21
O=C(Nc1ccnn1C1CCN(Cc2ccccc2)CC1)c1ccccc1Cl | -53.1
Cc1ccc(N(CC(O)CN(C)C)S(=O)(=O)c2ccccc2)cc1.Cl (stereo not shown) | -62.8
COc1cccc(/C=N/NC(=O)c2nnn(-c3nonc3N)c2-c2cccs2)c1 | 13.5
CC(=O)Nc1ccc(C(=O)NCCN2CCOCC2)cc1 | 16.6
CC(OC(=O)c1cccs1)C(=O)NCc1ccccc1 (stereo not shown) | 12.8
CCN(CC)S(=O)(=O)c1cc(NC(=O)c2ccc(-n3cncn3)c([N+](=O)[O-])c2)ccc1C | 16.9

Compound | hERG current change (%, negative = inhibition) at 1uM [%]
CCOC(=O)N1CCN(Cc2ccccn2)CC1.O=C(O)C(=O)O | 15.8
COc1cccc(C(=O)NNC(=O)Cc2cccs2)c1 | 11.4
O=C1CCC(=O)N1OCCCOc1ccccc1 | 9.04
c1ccc2c(N3CCCCC3)nc(N3CCOCC3)nc2c1 | -7.24
O=C1CN(C(=O)COc2c(Cl)cccc2Cl)c2ccccc2N1 | -16.7
CC1NC(=O)c2ccccc2-n2c1nc1cc(F)ccc1c2=O (stereo not shown) | 11.2
COc1cccc(C(=O)C2CCCN(Cc3cccc(OCCO)c3)C2)c1 (stereo not shown) | -9.73
CC1(c2nnc(-c3ccncc3)o2)CC(c2ccc(F)cc2)=NO1 (stereo not shown) | 1.53
Cc1cc(C(=O)NNC(=O)c2cccc(S(=O)(=O)N3CCOCC3)c2)c2ccccc2n1 | 9.94
COc1cccc(CN(C(=O)c2ccccc2Br)C2CCS(=O)(=O)C2)c1 (stereo not shown) | 31
CC(Sc1nnc(Nc2ccccc2F)s1)C(=O)NC1CC1 (stereo not shown) | 3
c1ccc(C2=Nc3cccnc3C(c3ccccc3)=NN2)cc1 | 16.8
Cc1ccc(NC(=O)CSc2nnc(-c3cccnc3)n2-c2ccc(C)cc2)cc1 | 2.22
Cc1cccn2cc(CNC(=O)c3ccco3)nc12 | 1.48
O=C(COc1ccc(Cl)cc1Cl)NN=C1CCCCC1 | 3.18
CCCCC(=O)Nc1ccc(NC(=O)C(C)C)cn1 | 15.1
CCOC(=O)c1c(NC(=O)CSc2nnc3ccccn23)sc2c1CCC2 | -5.62
Cc1ccc(CNC(=O)COc2cc(O)c3c(c2)OC(C)(C)CC3=O)cc1 | 8.7
O=C(CSc1nnc(-c2cccc(F)c2)o1)Nc1nncs1 | 10.7
CCOC(=O)C1CCCN(Cc2ccc(O)c(OC)c2)C1 (stereo not shown) | 0.0293
O=C(CN1CCN(Cc2ccc(F)cc2Cl)C1=O)NCc1cccs1 | 7.47
O=c1cc(CN2CCN(Cc3ccccc3)CC2)c2ccc(O)cc2o1 | -79.7
N#Cc1ccc(NC(=O)Nc2cccc(C#N)c2)cc1 | 9.2

Compound | hERG current change (%, negative = inhibition) at 1uM [%]
CCC(c1nnc(SCc2nc3ccccc3s2)n1Cc1ccccc1)N(C)C (stereo not shown) | -16.6
COc1ccccc1NS(=O)(=O)c1cccc(NC(=O)NCCCl)c1 | 1.29
Cc1cccc(C(=O)NNS(=O)(=O)c2ccc(F)cc2)c1O | 11.4
O=C(/C=C/c1ccc([N+](=O)[O-])cc1)NCc1cccnc1 | -14.4
O=C(Nc1ccc(NC(=O)c2ccco2)nc1)c1cccnc1 | 6.22
COCC(=O)N(Cc1cc2cc(C)ccc2[nH]c1=O)c1ccccc1 | 12.3
Cc1ccc(NC(=S)NC(=O)C2CC2)c(C)c1 | 20
CC(=O)Nc1ccc(C(=O)CSc2nnnn2C)cc1 | 14
CCOc1ccc(NC(=O)c2cccc3c2C(=O)N(CC2CCCO2)C3)cc1 (stereo not shown) | 8.11
O=C(C1CCCN(S(=O)(=O)c2ccc(F)cc2)C1)N1CCCCCC1 (stereo not shown) | -3.8
Cc1cccc(NS(=O)(=O)c2cc([N+](=O)[O-])ccc2C)n1 | 10.5
Cc1c(C(=O)N(C)c2ccc(Cl)cc2)cnn1-c1ccccc1 | 16.5
COC(=O)c1cnc(N2CCCN(S(=O)(=O)c3ccc(C(F)(F)F)cc3)CC2)nc1C(F)(F)F | 13.7
Cc1oc2c(CN3CCCC3)c(O)ccc2c(=O)c1-c1ccc(Cl)cc1 | 8.71
COc1ccc(Cc2n[nH]c(=S)n2Cc2ccccc2)cc1Cl | 4.75
O=C(N/N=C/c1ccsc1)c1cc(-c2ccncc2)nc2ccccc12 | 10.7
CCC(C(=O)O)n1cnc2scc(-c3ccc(C)c(C)c3)c2c1=O (stereo not shown) | 15.9
Cc1c(C)n(C)c2ccc(C(=O)NCc3cccs3)cc12 | -2.45
COc1ccccc1CNC(=O)C1CC(c2c(Cl)cccc2Cl)=NO1 (stereo not shown) | 10.7
CCCC(=O)N(CCN1CCOCC1)c1nc2c(C)ccc(C)c2s1.Cl | -8.8
CC(=O)CC1(O)C(=O)N(CN2CCN(c3ccccc3)CC2)c2ccccc21 (stereo not shown) | 15.8
COc1ccccc1CNC(=O)CCS(=O)(=O)c1cccc2nonc12 | 12.2
